Measured values taken from the RNAGym collection of RNA variant scans (doi:10.7554/elife.90254).
The source gives no read counts; variants with many changes may rest on few reads.

B1: LINE1-mini (parent)
chain: GGCAGAGCUCAACACAGCGUGGCAAAGUGGCUGUGGCUAGACUGCC

Variants of: B1
Assay: self-cleavage, relative activity (ratio to wild type); higher = more cleavage; in vitro, sequencing; the parent is a self-cleaving ribozyme

Variant	self-cleavage
GGCAUAGCUCAAUACAGCGGGGCAAAGUUGCUGUGGAUAGACUGCC	0.05
GGCAUAGCUCAACACAGCGUGGCAAAGUGGCUGUGGUUAGACUGCU	0.02
GGCAUAGCUCAAUACAGCGUGGCGAAGUGGCUGUGGCUAGAAUGCC	0.1
GGCAUAGCUCAAAACAGCCUGGCAAAAUGGCUGUGGCAAGACUGCC	0.01
GGCAUAGCUCAACACAGCGUGGCAAAGUGGUUGUGGCUAGCCUGCC	0.03
GGCAUACCUAAAUACAGCGUGGCAAAGUGGCUGUGGCUAGACUGCC	0.05
GGCAUAGCUCAAAACAGCGUGGCAAAGUGGCUGUGCCUAGACUGCC	0.04
GGCAUAGCUCAACAAAGCGUGGCAAAGAGGCUGUGGCUAGACUGCC	0.04
GGCAUAGCUGAACACAGCGUGGCAAGGUGGCUGUGGAUAGACUGCC	0.01
GGCAUAGCUCAAAAAAGUGUGGCAAAGUGGCUGUGGUUAGAUUGCC	0.02
GGCAUAGCUCAAGACGGCGUGGCAAAGUGGCUGUGGCUAUACUGCC	0.01
GGCAUAGCUUCACACAGCGUGGCAAAGUAGGUCUGGCUAGACUGCC	0.02
GGCAUAGCUUAACAAAGCGUGGCAAAGUGGCUGUGGAUAGACUGCC	0.03
GGCAUACCUCAAGACUGCGUGGCAAAGUGGCUGUGGCUUGACUGCC	0.05
GGCAUAGCUCAAAACAGCGUGGCAAAGUGGCUGUGGCUAGAUUGCC	0.02
GGCAUAGCUCAACACAGAGUGGCCAAGUGGCUGUGGCUAGAGUGCC	0.01
GGCAUAGCUGAACACAUCGUGGCAAAGUGGCUGUGGCUAGACUGCC	0.01
GGCAUAGCUCAACACAGCGUGGCAAAGUGGCUGUGGCUAGAAAGCC	0.07
GGCAUAGCUCAAUACAGUGUGGCACAGUGGCUGAGGCUAGACUGCC	0.01

Variant	self-cleavage
GGCAUAGCUCAACACAGUAUGGCAAAAUGGCUGUGGCUAGACUGCC	0.1
GGCAUAGCUCAACAAACCGUGGCAAAGUGGCUGUGGCUAGAAUGCC	0.06
GGCAUAGCUCAAAACAGCGUCGCAAAGUGGCGGUUGCUAGACUGCC	0.01
GGCAUAGCUCAACACAGCGUGGCAAAGUGGCUGUGGGUAGACUGCA	0.1
GGCAUAGCUCAAUACAGCGUGGCAAAGUGGCUGUGGCACGACUGCC	0
GGCAUAGCUUAACACAGCGUGGCAAAGUGGCUGUGUCUAGACUGCC	0.01
GGCAUAGCUCAAUACAGCGUGUGAAAGUGGCUGUGGCUCGACCGCC	0.01
GGCAUAGCUCAAUACAGCCUGGCAAAGUGGCUGUGGCUAGACUGCC	0.46
GGCAUAGCUCAACACAGUGUGGCAAUUUGGCUGUGGCUAGACUGCC	0.14
GGCAUAGCUUAACACAGCGUGGCAAAGUGGCUGAGGCAAGACUGCC	0.04
GGCAUAGCUCAAUACCGCGUGGCGAAGUGGCUGUGGCUAGACUGCU	0.01
GGCAUAGCUCAACACAGCGUGGCAAAGUGGUCGUGGCUAGACUUCA	0.02
GGCAUAGCUUAACACAGCGUGGCAAACUUGCUGUGGCUAGACUGCC	0.04
GGCAUAGCUCAACACAGCGUGGCAAAGUGGGGGUGGCUAGACUGCC	0.07
GGCAUAGCUCAACAAAGCGUGGCUCAGUGGCUGUGGCUAGACGGCC	0.01
GGCAUAGCUCAAAACAGCGUGUCAAAGUGGCUGUGGCUAGACUGCC	0.04
GGCAUAGCUCAACACAGCGUGGAACAGUGGCUGUGGCUAGACUGCC	0.04
GGCAUAGCUCAACAGAACGUGUCAAAGUGUUUGUGGCUAGACUGCC	0.02
GGCAUAGCUCAACACAGCGUGGCAAAGUGGCUGUGGCUAGAUUGUC	0.05

Variant	self-cleavage
GGCAUAGCUCAACAGAGCGUGGCAAAGUUGAUGCGGCUAGACUGCC	0
GGCAUAGCUCAACACAGUGGGGCAAUCUGGCUGUGGCUUGACUGCA	0.02
GGCAUAGCUCAAUACAGCGCGGCGAAGUGGCUGUGGCUAGACUGCU	0.03
GGCAUAGCUCAACAAAGCGUGUCAAAGUGGCUGUGACUUGACUGCG	0.02
GGCAUAGCUGAACAGAGCGUGGAAAAGUGGCUGUGGGUAGACUGCC	0
GGCAUAGCUUAACACAGCGCGGCAAAGUGACUGUGGCUAGACUGCC	0.04
GGCAUAGCUCAAGACAGCGUGGCCAAGUUGCUGUGGCUAGACUGCC	0.01
GGCAUAACUCAAAACAGCGUGGCAAAGUGUCUGUGGCUAGACUGCC	0.29
GGCAUAGCUCAACACAGGGUGGCAAAGUUGCUGUGGCUAGACUGCC	0.13
GGCAUAGCUCAACACAGGGUGACAAAGUGGCAGUGGCUAGACUGCC	0.05
GGCAUAGCUGAACACAGCGGCACAAAGGGGCUGUGGCUAGACUGCU	0.02
GGCAUACCUCAACACAGCGUGGCAAAGUGGGUGUCGCUAGACUGCC	0.06
GGCAUAGCUCAAAACAGGGUGGCAAAGUGGCUGUGGCUAGACUGCC	0.54
GGCAUAGCUUAACAAAGCGUCGCACAGUGGCUGUGAUUAGACUGCC	0.02
GGCAUAGCUCAACAGAGCGUGGCAAAGGGGCUGUGGCUUGACUGCC	0.02
GGCAUAGCUCAACACAGAGUGGCAAAAUUGUUGUGGCUAGACUGCC	0.07
GGCAUAGCUCAACACAGGGUGGCAAAGUGGCCGUGGCUAGACUGGC	0
GGCAUAGCUCAACAGAGCGUGGCAAAGUUGCUGUGGAUAGAAUGCC	0.01
